Data as given in the RNAGym collection of RNA variant scans (doi:10.1073/pnas.2313332121).
Variants at the background level are over-represented here.

B1: TPR 5TU (parent)
chain: GGAUCUUCUCGAUCUAACAAAAAAGACAAAUCUGCCACAAAGCUUGAGAGCAUCUUCGGAUGCAGAGGCGGCAGCCUUCGGUGGCGCGAUAGCGCCAACGUUCUCAACUAUGACACGCAAAACGCGUGCUCCGUUGAAUGGAGUUUAUCAUG

Variants of: B1
Test: polymerase ribozyme fitness, log enrichment relative to wild type (log ratio); higher = more active; in vitro selection for triplet polymerase activity
Outline: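 PCR was used to build mutant libraries for each subunit of a heterodimeric triplet polymerase ribozyme, which were then transcribed. A single in vitro selection round, in triplicate, used a frozen incubation at −7 °C and recovered extended constructs by gel excision, streptavidin beads and RT-PCR. Fitness is the logarithm of genotype enrichment relative to wild-type enrichment, averaged over replicates with inverse-variance weights. The logarithm is base 2, and after Illumina sequencing only genotypes with ≥10 input reads and ≥1 read per output were kept.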

Variant	polymerase ribozyme fitness (log ratio)
A16C A39G G74U C85U C114A A138C U139A G141A	≤ -4.2
U15C A21C A28C C54U A64U G68A G84A C87A G88U C132U U139C	≤ -4.2
U15C A24U C36A C93G A138C	≤ -4.2
U15C A21G A24U U53A	0.983
U15A U31A U45C G92A A106C U144A	≤ -4.2
U15G G74C A91C U134A A137U U148G	≤ -4.2
U15G A22U G42U C85A A150C	≤ -4.2
U15G A19G C54U G62A C87U U139C	≤ -4.2
U15G A29U C75G C87G G88U C105G G112A U144G	≤ -4.2
A16C A24C A26G U56A A73U C87G U130G U148G	≤ -4.2
U15G A24C G59C G68C C79G G81U C95A C132U	≤ -4.2
A16C A40G C85A U111A	≤ -4.2
U15G C27U U44A A113C	≤ -4.2
U15G C18A G80C C116U U144C	≤ -4.2
U15C A17C A26U C32G G68U C105U A110U	≤ -4.2
A16C A52C U56A A89U G94A C105U	≤ -4.2
U15G A107C G124A	≤ -4.2
U15G G25U U61G C93G U135C	≤ -4.2
U15C G25A C35G G83A U127G	≤ -4.2
A16C A24G C103A U134G	≤ -4.2
U15G U55A U77C C93U C125G	≤ -4.2
U15G C43U A66U C95U C99U C131A C132U G140U A142C	≤ -4.2
U15C U56G A113U	-0.657
A16C A23U U61G G88U C114A	≤ -4.2

Variant	polymerase ribozyme fitness (log ratio)
U15G G58A U61A G65C U77A G92C A110C	≤ -4.2
U15C C18U A23C U45A C54G G81A G84A C95A A97C A110U	≤ -4.2
U15C A24C C93U G128U G140A U144C	≤ -4.2
U15C G48C A49U A52G A60C C85A G141C G143A U148C	≤ -4.2
U15C U45A C87U C132G U139C G143A U145G	≤ -4.2
U15C A22U A47C G67U G81A G94U A142U U144A	≤ -4.2
A16C C18U A20G C35G G46A G94C C96G	≤ -4.2
A16C A28G C38U A47C U53G C79U C114G U135G G136U	≤ -4.2
A16C A41G C43U C103G U139A U148A U151G	≤ -4.2
U15C G84A A106G G124A	-0.149
U15G G25U U44A U45G U77G C93G A107C	≤ -4.2
U15C C93U	-0.331
U15G U77A C96A	≤ -4.2
U15G U31G C75U A91C C132U U134C U151C	≤ -4.2
A16C A41C G58A U61G A73C G94C A121G	≤ -4.2
U15G C27G G88A G100U U109C G141C	≤ -4.2
U15C G50C G86U U102G C125A U135A	≤ -4.2
U15C A28G U146C	≤ -4.2
U15G G42A G46A G50A A89C	≤ -4.2
U15G G65C C79A C96A	≤ -4.2
U15C A49G C76U A91U	≤ -4.2
U15C U53A A66U C72U G81A A97G	≤ -4.2
U15G A16U C27A U53G U55G A73G C95G	≤ -4.2
U15G A23U G48U G84U C95U	≤ -4.2

Variant	polymerase ribozyme fitness (log ratio)
U15G C27G C76U C87G	≤ -4.2
U15G C38U C87U U104A	-1.04
U15G A41C A107C C108U	≤ -4.2
U15G A91G C132A U139A	≤ -4.2
U15G G152U	-2.98
U15C C85U U102G U130C G133A	≤ -4.2
A16C A40C A66C G70A G84U A89G U127G A150G	≤ -4.2
U15C A20U C54U G86U	-1.77
U15C C18U A19C A20U G67C C85U G136A G140U	≤ -4.2
U15G G50A A73G U135C G140U	≤ -4.2
A16C A21U C69U G71A	-1.79
U15G C38A G94U A107G A110U U111C	≤ -4.2
U15G A23G G50C C51G C63G C96G	≤ -4.2
U15G A30G C54A	≤ -4.2
U15C A26G C35U A89C C99U U102C	≤ -4.2
A16C A22U U33C C38G G83A C95U U102G C108U	≤ -4.2
A16C A91U C131G	≤ -4.2
U15C A28U C54G C99A	≤ -4.2
U15G A19U U53G A66G C79U G124A	≤ -4.2
U15C G48A A49U A52G C54U C87G U90A C96U C99U U148G	≤ -4.2
A16C C18U A21U C27A G50U G86U	≤ -4.2
A16C A29G G50A C54U C93A C108U C116A U130G C132G G141C	≤ -4.2
U15G A28U C38U A119G G124U	≤ -4.2
U15C G74C G94C	-4.1

Variant	polymerase ribozyme fitness (log ratio)
A16C A22U U33C C72G G83C	≤ -4.2
U15C A23G A24U C51U A52C G58C C95U C118G	≤ -4.2
U15G A29G U31C A39U C51A G58C U139A	≤ -4.2
U15G G70A C93A U111C	≤ -4.2
A16C A66U A122C U139A A142U	≤ -4.2
U15C A49C G80C C85A C96U	≤ -4.2
A16C C18A C36A C96A U101G A110C G117A	≤ -4.2
A16C A28C G50A C54U A73U C87G C96G C114U	≤ -4.2
U15C A22C C51U G81U C85U G94A A122G	-1.17
U15G C57G C93A C99G	-4.06
U15C C27U C85U U127A G141U	≤ -4.2
U15G A16C A17C A40C C93U C99G G100A A110C A138U	≤ -4.2
U15G A26C A28C C43U G59A C87G	≤ -4.2
U15G A28C U44A C57A G58A A91U U102A U134A U145A	≤ -4.2
A16C A47C U55A U56A G68U G92U C99A U134G A137C	≤ -4.2
U15G A40G A41U G42A C93A U102G	≤ -4.2
A16C A52G U55A G94U A107G	≤ -4.2
U15C G25U C54U A121U G136U	≤ -4.2
U15G A37C C38G A49C G59C C85G G94A C108U A138C	≤ -4.2
U15G A73C G92U C125U	≤ -4.2
U15G C85U G100C C116G G141C	≤ -4.2
U15G U44G G88U C93A C118G A121G	≤ -4.2
U15C C51A U55A G92U C93G A138U C149A	≤ -4.2
U15G C18G A40U C76G C118G U139C	≤ -4.2

Variant	polymerase ribozyme fitness (log ratio)
U15G U53C C72G C87G	≤ -4.2
U15G A29U C95A A147G	≤ -4.2
A16C C27A C87U	≤ -4.2
U15G G46C G59U C93U C103U C123U A150U	≤ -4.2
A16C A91C C103A	≤ -4.2
U15G C54A A66C G74A C96A	≤ -4.2
U15C U44A A52G C72G C85G G88C	≤ -4.2
U15C A64U C87A A97U	≤ -4.2
U15G A22G U56G C96U A121U	-0.722
A16C A17U A22C G92A U148C	≤ -4.2
U15G U82C C103G G117U G141U	≤ -4.2
U15G A66C G92U	≤ -4.2
U15G C18U G50C U82G C87A	≤ -4.2
U15G G25C C51A C96G C149G	≤ -4.2
U15G A17C A20C A28U A47G C57A A89U A91G U101G	≤ -4.2
U15G A17G A23C G25C U31C G46U U61A C99G C108A C125G	≤ -4.2
U15G A23C G25U A39C U45A C57U G92U A115C G141U	≤ -4.2
U15G U33A A49C G67C A113G G141U	≤ -4.2
U15C A19U C43A G59A G84A A115U A120G G152U	≤ -4.2
U15C A91U U104G C105U	≤ -4.2
A16C A30C U45A A47G A106G	≤ -4.2
U15C A21G C35U C72G G74U C75G G83C A89G	≤ -4.2
U15G C38G C87A U102C	≤ -4.2
U15G C35U A41C A115G U145G	-4.04

Variant	polymerase ribozyme fitness (log ratio)
A16C C27A G50C A60G C96U U109G A115C A119C U139G G143C	≤ -4.2
U15G U31A U90C G94U G124A C125U	≤ -4.2
A16C A20U A28U C35A G50U G59C G84A C87G C96U C103A	≤ -4.2
U15C C54A C87U G94A A98U C125A	-3.98
A16C C18G U45G U61G	≤ -4.2
U15A U55A G59A	0.845
A16C A21C A29U A37C G42A	≤ -4.2
U15G A49C A66G C85A C103U G140U	≤ -4.2
A16C A20C A29C U55A G83U	≤ -4.2
U15C A21U	1.65
U15G C95U U104G U144A	-0.599
A16C A52G G83A C85U A119C U134G U135C U139A U146C	≤ -4.2
U15G U53A A91G	-2.83
U15G A20U U31G A49C A52C C75G U77A A98G U130A	≤ -4.2
A16C A49C C103G	≤ -4.2
U15C U145G	0.506
A16C A19U C85U G117U A150U	0.0374
U15G A21C G83U A89G C96G U127A	-4.13
A16C A17U C18U G42C C57U G83A A137C	≤ -4.2
A16C A17U C35A C72U A73G	≤ -4.2
A16C A17G C43G G84U U101A G133U	≤ -4.2
U15G U53A C93G	≤ -4.2
A16C A23C C35U A97G	≤ -4.2
U15G U31A G86U G128A G133U G143C	≤ -4.2

Variant	polymerase ribozyme fitness (log ratio)
U15G A19C A22U A30G C51U A52C C75G G83A C108G	≤ -4.2
U15G U45C G71A G94U U134C A138U U145G	≤ -4.2
A16C A24C G50C C85U G143U	≤ -4.2
U15C A37U G46U G84U U148C	≤ -4.2
U15C C18U U33A A52U G86U G92C	≤ -4.2
U15C A23U G46C G86A C87A G88A G136A	≤ -4.2
A16C A29U U44A A110G G136A	≤ -4.2
U15G A22U A41U G84U G88C C96G C114U C123U	≤ -4.2
U15G A73C G84U C96A C103G A110G A137C	≤ -4.2
A16C A22G C32A A37G G50U G74U	≤ -4.2
A16C A26U G46C C75U C95A C96G C116G	≤ -4.2
A16C A21G C57U G92A C105U G126C U134G A147G	≤ -4.2
A16C A41C C57G G59C U135A	-3.85
U15C A24G A39G G83A C99G	≤ -4.2
A16C A26C U44G A60U G80U A91U G128A U145G	≤ -4.2
U15G A22U G58U G71U C72U A91G	≤ -4.2
U15C A23C U77G C85U	≤ -4.2
U15C U53G C99G A107G A142U	≤ -4.2
A16C C27A A30U C38G G48U G86U A110U C116G G141A	-4.02
A16C A22C C38A A40U C93G A119G	≤ -4.2
A16C A52G A137U	≤ -4.2
U15G C18G C85A C87A A106C A142G	≤ -4.2
A16C A17U C51A G86U C95A G136U	≤ -4.2
